# Hit rate of the full screen: of about 340,000 compounds, about 6,900 (2%) were called active. No stated cut-off is given here; in the data, active means inhibition above about 30%; inactive means below that, where a call was filed. Only a part is listed here, and it is no random draw. The source gives no active or inactive call for entries shown without one.
# Molecular target: D(2) dopamine receptor (Homo sapiens) (UniProt P14416)
# Experiment: HTS Assay for Allosteric Antagonists of the Human D2 Dopamine Receptor: Primary Screen for Antagonists; further: 0% is about no effect
# Conditions: HEK293 TREx D2 cells, calcium flux, dopamine EC80; at 10 µM; stronger effect = higher value
# Outline: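 Overnight-induced (tetracycline, 30 C) HEK293 T-REx cells carrying force-coupled D2 receive a no-wash calcium dye, then compound, then EC80 dopamine at 180 s; signals are read kinetically throughout.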
# Chain of UniProt P14416 (P14416 whole entry, looked up): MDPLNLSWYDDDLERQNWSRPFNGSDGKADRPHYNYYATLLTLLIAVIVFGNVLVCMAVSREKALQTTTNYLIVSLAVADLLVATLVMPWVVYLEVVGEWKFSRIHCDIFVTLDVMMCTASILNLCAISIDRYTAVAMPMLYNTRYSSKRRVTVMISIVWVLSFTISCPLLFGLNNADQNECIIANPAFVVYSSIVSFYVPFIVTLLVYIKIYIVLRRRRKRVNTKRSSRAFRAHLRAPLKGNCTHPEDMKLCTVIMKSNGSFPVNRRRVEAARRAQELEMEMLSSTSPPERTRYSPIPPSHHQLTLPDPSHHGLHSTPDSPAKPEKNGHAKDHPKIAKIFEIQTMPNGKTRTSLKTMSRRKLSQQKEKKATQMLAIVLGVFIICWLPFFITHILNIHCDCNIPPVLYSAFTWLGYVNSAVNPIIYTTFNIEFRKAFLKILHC
row,SMILES,inhibition
1,Cc1cc(=O)n(Cc2ccc(Cl)cc2)c2c1c(C)nn2-c1ccccc1,-5.1%
2,COc1ccc(OC)c(S(=O)(=O)NCCS(=O)(=O)N2CCN(c3ccccc3)CC2)c1,20.6%
3,O=C(Cn1c(=O)n(-c2ccccc2)c(=O)c2c3c(sc21)CCCC3)Nc1ccc(F)cc1F,7.55%
4,COc1cc(NC(=O)CCc2c(C)nc3c(-c4ccc(F)cc4)c(C)nn3c2C)cc(OC)c1OC,-21.3%
5,COc1ccc(CNC(=O)C(Cc2ccccc2)NS(=O)(=O)c2ccc3c(c2)CCN3C(C)=O)cc1 (stereo not drawn),-8.94%
6,CC1=C(C(=O)Nc2ccccc2)C(c2cccs2)n2nnnc2N1 (stereo not drawn),active: 35.8%
7,CCCSc1ncc(Cl)c(C(=O)N2CCN(c3cccc(Cl)c3)CC2)n1,0.421%
8,CCOc1ccc(NC(=O)CC2C(=O)N(c3ccc(OC)cc3)C(=O)N2C2CCCCC2)cc1 (stereo not drawn),17.2%
9,CCC(=O)N1CCc2cc(CNS(=O)(=O)c3ccc(C(C)C)cc3)ccc21,-12.2%
10,COC(=O)c1ccc2c(=O)n(CCCCCC(=O)N3CCN(c4cc(C)ccc4C)CC3)c(=O)[nH]c2c1,16.4%
11,COc1cc2nc(NCCc3ccccc3)n3nc(-c4cccnc4)nc3c2cc1OC,2.12%
12,Cc1nn(-c2ccccc2)c2sc(C(=O)Nc3cccc(Cl)c3)cc12,5.01%
13,CCOC(=O)c1c(NC(=O)/C=C/c2ccc(OCC)cc2)sc(C(C)=O)c1C,-14.5%
14,Cc1ccc(C)c(N2CCN(C(=O)CCS(=O)(=O)c3cc(Br)cc4c3N(C(=O)C3CC3)CC4)CC2)c1,3.48%
15,Cc1nc2c3ccccc3nc(NNC(=O)CCC(=O)N3CCN(c4cc(Cl)ccc4C)CC3)n2n1,0.948%
16,CCc1cccc(NC(=O)CSc2nc3ccccc3nc2N2CCCCC2)c1,28.5%
17,COc1ccc(OCC(=O)Nc2cccc(C(=O)OCc3cc(=O)n4nc(C)sc4n3)c2)cc1,7.32%
18,N#Cc1ccccc1COC(=O)c1ccc2c(c1)OCCO2,active: 30.7%
19,COCc1cc(C)nc2sc(C(=O)Nc3ccc(C(C)=O)cc3)c(N)c12,5%
20,CCOc1ccc(NC(=O)CC2C(=O)N(c3ccccc3)C(=O)N2C2CCCC2)cc1 (stereo not drawn),-1.55%
21,Cc1ccc(CNC(=O)Cn2nc(N3CCN(c4ccccc4)CC3)ccc2=O)cc1,2.82%
22,Cc1cccc(N2CCN(C(=O)c3cnn(-c4ccc(F)cc4F)c3C3CCN(C(=O)OC(C)(C)C)CC3)CC2)c1C,-9.73%
23,CCCn1c2ccccc2c2cnn(CC(=O)N(CC)c3cc(C)ccc3C)c(=O)c21,24.6%
24,CCCNC(=O)CSc1c2c(nc3ccc(Cl)cc13)CCCC2,0.12%

row,SMILES,inhibition
1,CCOC(=O)c1cc2c(=O)n3ccccc3nc2n(Cc2ccco2)c1=NC(=O)c1cccc(C)c1,-0.604%
2,CCOc1ccccc1NC(=O)c1cc2cc3cc(C)ccc3nc2s1,14.4%
3,COc1ccc(-n2c(SCC(=O)NCc3ccco3)nc3c([nH]c4ccccc43)c2=O)cc1,-10.7%
4,Cc1ccc(NC(=O)CSc2nc3ccccc3c(=O)n2CCC(=O)NC2CCCCC2)cc1C,-3.38%
5,Cc1cccc(N2CCN(C(=O)C3CCN(S(=O)(=O)c4c(C)noc4/C=C/c4ccccc4F)CC3)CC2C)c1 (stereo not drawn),11.3%
6,Cc1ccc(C2C=C(c3ccccc3)Nc3nc(NS(=O)(=O)c4ccc(C)cc4)nn32)cc1 (stereo not drawn),5.94%
7,Cc1ccc2oc(=O)c3cnn(CC(=O)N4CCN(c5ccccc5F)CC4)c3c2c1,26.9%
8,CCc1ccccc1NC(=O)c1ccc(Cn2nc(N3CCN(c4ccccc4)CC3)ccc2=O)o1,-0.809%
9,Cc1cc(=O)n(Cc2ccccc2)c2c1c(C)nn2-c1ccccc1,3.31%
10,Cc1ccc(NC(=O)c2c3c(nc4ccccc24)C(=O)N(C2CCCCC2)C3)cc1F,0.175%
11,Cc1ccccc1NC(=O)CC1NCCNC1=O (stereo not drawn),0.129%
12,C=CCc1ccccc1OCc1nc2ccc(C)cc2[nH]1,-13.2%
13,CCOC(=O)c1c(NC(=O)CSc2nc(-c3ccc(OC)cc3)cc(C(F)(F)F)n2)sc(C)c1C,6.51%
14,Cn1c(=O)n(CC(=O)O)c(=O)c2c1nc1n2CCCN1c1ccc(Cl)cc1,-10.5%
15,CCN(CC)S(=O)(=O)c1ccc2c(c1)c(=O)c(C(=O)NCCc1ccccc1)cn2C,5.13%
16,COc1ccc(C2CC(=O)c3cnc4c(-c5ccc(F)cc5)c(C)nn4c3C2)cc1OC (stereo not drawn),-7.6%
17,Cc1csc2nc(COc3ccc(NC(=O)C(C)C)cc3)cc(=O)n12,19.6%
18,Cc1csc2c(NC3CCN(Cc4ccccc4)CC3)ncnc12,active: 89.2%
19,CCOC(=O)Cc1c(C)nc2cc(-c3ccc(C(C)(C)C)cc3)nn2c1C,-10.4%
20,O=C1[C@H]2[C@@H](c3ccc(F)cc3)N3C(=O)N(c4cccc(Br)c4)C(=O)[C@@]3(Cc3ccccc3)[C@H]2C(=O)N1C1CCCCC1,active: 40.9%
21,CCc1ccc(NC(=O)C2CCCN2S(=O)(=O)c2ccc3nc(-c4ccccc4)[nH]c3c2)cc1 (stereo not drawn),-6.72%
22,Cc1ccc(C(C)C)c(OCCNCCc2ccccc2)c1,active: 41.4%
23,Cc1ccccc1C(=O)NC(CC(C)C)C(=O)NN1C(=O)c2ccccc2C1=O (stereo not drawn),active: 30.5%
24,CC12CN3CC(C)(CN(C1)C3c1ccc([N+](=O)[O-])o1)C2 (stereo not drawn),active: 32.1%
